In PubChem BioAssay AID504706 (National Center for Advancing Translational Sciences (NCATS), 2011):
Among all 320,000 compounds or so, about 200 (0.062%) were called active. Inconclusive results, whose numbers are uncertain, are shown with a selection of clear calls. The call rests on the fitted dose curve; in most records, active means well fitted activation curve with a large enough effect; inconclusive means small, poorly fitted or top-dose-only effect; inactive means no such curve, though single readings can be large or run the other way. No potency is given beside an inconclusive call; the fits are too rough.

Assay: qHTS assay for re-activators of p53 using a Luc reporter; further: nearly all actives have a fitted effect of over 45% in size
Details: H1299 p53-A138V BP100-luciferase reporter, luminescence, 24 h; series mostly up to 92.2 µM
Procedure, shortened: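 p53-null H1299 cells stably carrying temperature-sensitive p53-A138V and a BP100-luciferase reporter were pinned with compounds (4-point, 1:5 series) and held 24 hrs at 37 deg C. Luminescence was read 10 min after detection reagent.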
Potency means the concentration at half of the fitted maximal effect; tags describe the fitted curve by direction and shape.

| SMILES | Potency |
| --- | --- |
| O=C(COc1ccccc1)c1cn(Cc2ccccc2)c2ccccc12 | inconclusive [activator, full curve, poor fit] |
| O=C(NC1(C(F)(F)F)Oc2ccccc2O1)N1CCC2(CC1)OCCO2 | inconclusive [activator, partial curve, poor fit] |
| Clc1ccc(COC(Cn2ccnc2)c2ccc(Cl)cc2Cl)c(Cl)c1 (stereo unspecified) | inactive |
| Cc1nn(C)c(C)c1/C=C1/CC2C3CC=C4CC(O)CCC4(C)C3CCC2(C)C1=O (stereo unspecified) | inactive |
| CC1CCN(S(=O)(=O)c2ccc(NN=C(C#N)C#N)cc2)CC1 | inactive |
| c1ccc(OCCSc2nc3ccccc3[nH]2)cc1 | inconclusive [activator, partial curve, poor fit] |
| Clc1ccc2c(c1)C(c1ccccc1Cl)=NCc1nnc(N3CCN(CCOc4ccccc4)CC3)n1-2 | inactive |
| Nc1ccccc1C(=O)OCCc1ccccc1 | inconclusive [activator, full curve, poor fit] |
| Cc1cc(C)nc(/N=C(\N)c2c(O)[nH]c(=O)[nH]c2=O)n1 | inconclusive [activator, single point] |
| c1ccc(CN2CCN(Cc3ccc4c(c3)OCCO4)CC2)cc1 | inconclusive [activator, single point] |
| O=c1cc(-c2ccc(O)c(O)c2)oc2cc(O)cc(O)c12 | inconclusive [activator, partial curve, poor fit] |
| COc1ccc(OC)c(C(O)C(C)N)c1 (stereo unspecified) | inconclusive [activator, single point] |
| CCOC(=O)c1c(N)n(Cc2ccc(OC)cc2)c2nc3ccccc3nc12 | inactive |
| C[C@]12CC[C@H](O)CC1=CCC1C2CC[C@@]2(C)C1C[C@@H](O)[C@@H]2O (stereo partly specified) | inactive |
| c1ccc(CN2CCc3nc4ccccc4cc3C2)cc1 | inconclusive [activator, full curve, poor fit] |
| O=C(Cn1c(=O)n(CC2CS2)c2ccccc21)N1CCCCC1 (stereo unspecified) | inconclusive [activator, partial curve, poor fit] |
| CCCCCn1c(=O)c(C(=O)Nc2ccccn2)c(O)c2ccccc21 | inconclusive [activator, single point] |
| Cc1ccc(-c2cc(-c3ccccc3)cc(-c3ccccc3)[n+]2-c2ccccc2)cc1 | inactive |
| Cc1ccc(N=Cc2c(O)n(C)c(=O)n(C)c2=O)cc1 | inconclusive [activator, single point] |
| Cc1c(C(=O)N2CCOCC2)sc2nc(-c3ccccc3)cn12 | inconclusive [activator, full curve, poor fit] |
| COc1cc(C(C)=O)ccc1OCc1cc(C(=O)N(C)CCC2CCCCO2)no1 (stereo unspecified) | inconclusive [activator, partial curve, poor fit] |
| O=C(N=Nc1c(O)[nH]c(=O)[nH]c1=O)C1COc2ccccc2O1 (stereo unspecified) | inactive |

| SMILES | Potency |
| --- | --- |
| COc1cc(CN2C(=O)NC(=O)C3(Cc4cc(C)ccc4N(C)C3)C2=O)cc(OC)c1 (stereo unspecified) | inactive |
| O=[N+]([O-])c1ccccc1CNCCc1ccc(F)cc1 | inconclusive [activator, partial curve, poor fit] |
| O=C1C2C3CCC(C3)C2C(=O)N1c1ccc(OS(=O)(=O)c2ccccc2)cc1 (stereo unspecified) | inconclusive [activator, partial curve, poor fit] |
| CN1C(=O)/C(=C\c2ccc(N3CCCCC3)o2)C(=O)NC1=S | inconclusive [activator, partial curve, poor fit] |
| O=C(N/N=C/c1c(O)n(C2CC2)c(=S)[nH]c1=O)c1ccccc1 | inconclusive [activator, partial curve, poor fit] |
| S=c1[nH]nc(-c2ccco2)n1Cc1ccccc1 | inconclusive [activator, partial curve, poor fit] |
| CN1CCN(C(=O)COc2ccc3ccccc3c2)CC1 | inactive |
| CC(=O)OC(C)(C)/C=C/C(=O)C(C)(O)C1[C@H](O)C[C@@]2(C)C3CC=C4C(CC[C@@H](O)C4(C)C)[C@]3(CO)C(=O)C[C@]12C (stereo partly specified) | inactive |
| O=C1CC(=O)N(c2cccc(F)c2)C(=O)N1 | inconclusive [activator, single point] |
| CCN1C[C@]2(CO)CC[C@H](OC)[C@@]34C2[C@H](OC)[C@@](O)(C13)[C@@]1(O)C[C@H](OC)[C@H]2C[C@@H]4[C@@H]1[C@H]2OC | inactive |
| N#CC1=C(N)Oc2n[nH]c(-c3cccs3)c2C1c1ccco1 (stereo unspecified) | inconclusive [activator, full curve, poor fit] |
| COc1ccc(CCNC(C)CCc2ccc(OC)cc2)cc1 (stereo unspecified) | inconclusive [activator, single point] |
| COC(=O)C1=C(c2ccc(-c3ccccc3)c(F)c2)C[C@@H]2CC[C@H]1N2C(=O)N1CCC(O)CC1 | inactive |
| Cc1cc[n+](Cc2ccccc2)cc1 | inactive |
| COc1ccc(-n2nc(C(=O)NCC(=O)N3CCC4(CC3)OCCO4)c3ccccc3c2=O)c(OC)c1 | inconclusive [activator, partial curve, poor fit] |
| CC(=O)Nc1cc([As](=O)(O)O)ccc1O | inactive |
| COc1cccc(NC(=O)N2CCC3(CC2)OCCO3)c1 | inconclusive [activator, full curve, poor fit] |
| O=C(CSc1ccccc1)N1CCC2(CC1)OCCO2 | inconclusive [activator, full curve, poor fit] |
| COC(=O)C1=C(c2ccc(OC)c(OC)c2)C[C@@H]2CC[C@H]1N2C(=O)N1CCCCC1 | inconclusive [activator, partial curve, poor fit] |
| N#CC(C#N)=NNc1ccc([N+](=O)[O-])cc1 | inconclusive [activator, single point] |
| C=C1C(O)[C@@H]2O[C@]3(CC[C@H](/C=C/C(C)[C@@H]4CC(C)=CC5(O[C@H](C[C@@](C)(O)C(=O)O)CCC5O)O4)O3)CC[C@H]2O[C@@H]1C(O)CC(C)[C@H]1OC2(CCCCO2)CCC1C (stereo partly specified) | inconclusive [activator, full curve, poor fit] |
| CCCCCCCCn1sccc1=O | inactive |

| SMILES | Potency |
| --- | --- |
| COc1ccc(NC2=NC(C)(C)CS2)cc1 | inconclusive [activator, partial curve, poor fit] |
| COc1ccc(C(C)=O)cc1CC(C(=O)c1ccccc1)N(C)C (stereo unspecified) | inconclusive [activator, full curve, poor fit] |
| COC(=O)c1cn(CCOc2ccccc2)c2ccccc12 | inconclusive [activator, single point] |
| O=C(/C=C/c1ccccc1)C1C(=O)c2ccccc2C1=O | inconclusive [activator, full curve, poor fit] |
| O=C(C1CC(c2ccccc2O)=NO1)N1CCC2(CC1)OCCO2 (stereo unspecified) | inconclusive [activator, full curve, poor fit] |
| CCn1c(C(=O)N2CCC(C(=O)N3CCC4(CC3)OCCO4)CC2)cc2sccc21 | inactive |
| CCCCCCNC(=O)N[C@@H](Cc1ccc(O)cc1)C(=O)NCCC[C@H]1CN2C(=NC[C@H]2C)N1CC1CCC1 | inconclusive [activator, partial curve, poor fit] |
| CC1(C)CN=C(NCc2ccccc2Cl)S1 | inconclusive [activator, full curve, poor fit] |
| O=C(CCC1CCCC1)c1c(O)c2ccccc2oc1=O | inconclusive [activator, partial curve, poor fit] |
| O=C(Nc1ccc(Cl)cc1)O/N=C(\c1ccccc1)c1ccccn1 | inconclusive [activator, single point] |
| Cn1c(O)c(/C=N/N2CCOCC2)c(=O)[nH]c1=S | inactive |
| COc1ccc(N2C(=O)CS(=O)C(c3ccccc3)C2=O)cc1 (stereo unspecified) | inconclusive [activator, partial curve, poor fit] |
| CN1CCN(c2ccc(S(=O)(=O)C(F)(F)F)cc2[N+](=O)[O-])CC1 | inconclusive [activator, full curve, poor fit] |
| Clc1cccc(/C=N\Nc2nccs2)c1 | inconclusive [activator, partial curve, poor fit] |
| NC(N)=N/N=C/c1ccc(N2CCOCC2)cc1 | inactive |
| COc1ccc(CCNC2CCCCC2)cc1 | inactive |
| COc1ccc(CN2CCN(Cc3ccccc3OC)CC2)cc1 | inactive |
| CCC(=Nc1ccccc1N)c1c(O)[nH]c(=O)[nH]c1=O | inconclusive [activator, full curve] |
| CC(Cc1ccccc1)/[N+]([O-])=C\c1ccc(C(F)(F)F)cc1 (stereo unspecified) | inconclusive [activator, partial curve, poor fit] |
| CN(CC(=O)N1CCc2ccccc21)S(=O)(=O)c1cccs1 | inconclusive [activator, partial curve, poor fit] |
| Cc1cccc(-n2c(O)c(C=NCCCN3CCOCC3)c(=O)[nH]c2=O)c1C | inconclusive [activator, partial curve, poor fit] |
| COc1ccccc1CC(=O)Nc1ccc2c(c1)OC1(CCCC1)O2 | inconclusive [activator, partial curve, poor fit] |
